Results from article PMC4336329 (PLoS ONE, 2015).
In all, about 310,000 compounds went through this assay and about 2,200 (0.71%) showed an effect of 50% or more. The effect is printed as a negative number. The list shows a part of the results.

Target: human ether-à-go-go-related gene (hERG) potassium channel (human, UniProt Q12809)
Test: primary screen, population patch clamp on CHO cells stably expressing hERG

Sequence of human ether-à-go-go-related gene (hERG) potassium channel (Q12809 whole entry, looked up): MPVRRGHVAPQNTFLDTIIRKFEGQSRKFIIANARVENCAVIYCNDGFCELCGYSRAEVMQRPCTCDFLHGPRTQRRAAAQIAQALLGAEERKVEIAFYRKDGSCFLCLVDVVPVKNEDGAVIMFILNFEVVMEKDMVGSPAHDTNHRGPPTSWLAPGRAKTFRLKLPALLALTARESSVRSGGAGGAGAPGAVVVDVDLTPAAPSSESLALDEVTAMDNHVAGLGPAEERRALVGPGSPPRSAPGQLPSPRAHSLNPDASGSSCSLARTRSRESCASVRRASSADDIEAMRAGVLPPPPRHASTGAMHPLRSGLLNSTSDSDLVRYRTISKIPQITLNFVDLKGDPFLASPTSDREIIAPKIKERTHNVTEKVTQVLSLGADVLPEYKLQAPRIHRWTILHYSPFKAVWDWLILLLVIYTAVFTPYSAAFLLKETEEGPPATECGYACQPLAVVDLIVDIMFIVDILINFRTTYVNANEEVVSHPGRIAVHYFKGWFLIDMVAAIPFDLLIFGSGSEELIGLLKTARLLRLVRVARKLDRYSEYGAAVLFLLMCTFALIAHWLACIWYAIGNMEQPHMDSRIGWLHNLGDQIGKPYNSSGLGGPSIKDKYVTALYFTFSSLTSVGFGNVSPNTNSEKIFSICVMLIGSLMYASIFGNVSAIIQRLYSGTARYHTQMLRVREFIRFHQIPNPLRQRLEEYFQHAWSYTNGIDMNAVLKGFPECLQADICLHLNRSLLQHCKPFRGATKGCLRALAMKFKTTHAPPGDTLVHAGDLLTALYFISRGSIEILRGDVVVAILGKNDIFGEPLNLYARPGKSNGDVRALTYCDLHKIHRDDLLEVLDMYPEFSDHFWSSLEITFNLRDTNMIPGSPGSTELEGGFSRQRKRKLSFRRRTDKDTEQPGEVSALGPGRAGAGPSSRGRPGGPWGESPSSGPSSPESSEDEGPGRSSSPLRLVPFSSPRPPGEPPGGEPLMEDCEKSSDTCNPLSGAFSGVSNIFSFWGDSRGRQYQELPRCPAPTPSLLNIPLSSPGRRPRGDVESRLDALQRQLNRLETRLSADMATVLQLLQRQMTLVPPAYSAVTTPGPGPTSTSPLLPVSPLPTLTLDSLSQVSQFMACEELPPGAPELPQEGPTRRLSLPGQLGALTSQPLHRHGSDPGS

Question: Which “hERG current change (%, negative = inhibition) at 1uM” value does the source give for COc1cc(-c2ccc(NC(=O)NC3CC3)c(OC)c2)ccc1NC(=O)NC1CC1 here?
Answer: 17.9%

Question: How did the “hERG current change (%, negative = inhibition) at 1uM” value turn out when CC(=O)/C(=C/Nc1ccc(Oc2ccccc2)cc1)c1ccccc1 was run?
Answer: -0.287%

Question: Which “hERG current change (%, negative = inhibition) at 1uM” value does the source give for COc1cc(C2C(C#N)=C(N)Oc3c2ccc2ccccc32)ccc1OCC(=O)Nc1ccc(C)cc1 (centres unmarked) here?
Answer: 13.1%

Question: How did the “hERG current change (%, negative = inhibition) at 1uM” value turn out when COc1ccccc1NC1=C(Cl)C(=O)OC1OC(=O)c1ccco1 (centres unmarked) was run?
Answer: 13.4%

Question: CSc1oc(-c2ccco2)nc1S(=O)(=O)c1ccc(F)cc1 was tested. Which “hERG current change (%, negative = inhibition) at 1uM” value did it give?
Answer: 9.6%

Question: COc1ccc(-n2c(C)nc3cc(C(=O)O)ccc32)cc1 was tested. Which “hERG current change (%, negative = inhibition) at 1uM” value did it give?
Answer: 9.14%

Question: How did the “hERG current change (%, negative = inhibition) at 1uM” value turn out when Cc1c(-c2cc(C(=O)O)no2)cnn1C was run?
Answer: 14.1%

Question: With Cc1ccccc1Nc1nc(N)nc(COc2ccc(C#N)cc2)n1 as the molecule, how does the “hERG current change (%, negative = inhibition) at 1uM” value read?
Answer: -4.44%

Question: For CCOc1cc(C(N)=O)cc(Cl)c1OCc1ccccc1, which “hERG current change (%, negative = inhibition) at 1uM” value is on record?
Answer: 7.74%

Question: With Cc1ccc(C(=O)NCC(=O)Nc2ccc(F)c(F)c2F)cc1 as the molecule, how does the “hERG current change (%, negative = inhibition) at 1uM” value read?
Answer: 10.1%

Question: Which “hERG current change (%, negative = inhibition) at 1uM” value does the source give for COCCCNC(=S)NNC(=O)c1csc2ccccc12 here?
Answer: 9.29%

Question: CCOC(=O)C1CCCCN1Cc1ccc(-c2ccccc2)cc1 (centres unmarked) was tested. Which “hERG current change (%, negative = inhibition) at 1uM” value did it give?
Answer: 17.3%

Question: Which “hERG current change (%, negative = inhibition) at 1uM” value does the source give for O=C(NNC(=O)C1CCCCC1)C(=O)NC1CCCCC1 here?
Answer: 8.76%

Question: How did the “hERG current change (%, negative = inhibition) at 1uM” value turn out when O=C(NCC1CCCO1)/C(=C\c1cccs1)NC(=O)c1ccccc1 (centres unmarked) was run?
Answer: 11.3%

Question: Which “hERG current change (%, negative = inhibition) at 1uM” value does the source give for CC1CCN(S(=O)(=O)c2ccc(C(=O)NCc3ccco3)cc2)CC1 here?
Answer: 3.56%

Question: For O=C(NNC1CC(=O)N(c2ccc3c(c2)OCCO3)C1=O)c1ccccc1 (centres unmarked), which “hERG current change (%, negative = inhibition) at 1uM” value is on record?
Answer: 13.5%

Question: Which “hERG current change (%, negative = inhibition) at 1uM” value does the source give for CC(=O)Nc1cccc(C(=O)Nc2ccccc2N2CCOCC2)c1 here?
Answer: 11.3%

Question: Which “hERG current change (%, negative = inhibition) at 1uM” value does the source give for CCNc1ccc(Br)cc(C(=O)/C=C/c2ccc(Cl)cc2Cl)c1=O here?
Answer: 5.03%

Question: With COc1ccc(-c2cc(C(=O)N(C)Cc3cccc(OC)c3OC)c3ccccc3n2)cc1OC as the molecule, how does the “hERG current change (%, negative = inhibition) at 1uM” value read?
Answer: -2.95%

Question: Which “hERG current change (%, negative = inhibition) at 1uM” value does the source give for COc1ccc(CNC(=O)c2cc3ccccc3o2)cc1OC here?
Answer: 17.4%

Question: With CCOC(=O)c1oc2cc(O)ccc2c(=O)c1-c1ccc(OC)cc1 as the molecule, how does the “hERG current change (%, negative = inhibition) at 1uM” value read?
Answer: 14.5%

Question: Which “hERG current change (%, negative = inhibition) at 1uM” value does the source give for O=C(c1cnc2n(c1=O)CCS2)N1CCN(c2ccc([N+](=O)[O-])cc2)CC1 here?
Answer: -15.2%

Question: Cc1ccc(S(=O)(=O)N2CCCCC2)cc1NC(=O)COC(=O)c1c(F)cccc1F was tested. Which “hERG current change (%, negative = inhibition) at 1uM” value did it give?
Answer: 7.19%

Question: How did the “hERG current change (%, negative = inhibition) at 1uM” value turn out when O=C(NNC(=O)C12CC3CC(CC(C3)C1)C2)c1cccc([N+](=O)[O-])c1 was run?
Answer: 9.44%

Question: For C=CCn1c(SCC(=O)Nc2cc(OC)c(NC(=O)c3ccco3)cc2OC)nnc1-c1ccncc1, which “hERG current change (%, negative = inhibition) at 1uM” value is on record?
Answer: 15.4%

Question: How did the “hERG current change (%, negative = inhibition) at 1uM” value turn out when Cc1ccnc(NS(=O)(=O)c2ccccc2)n1 was run?
Answer: 4.84%

Question: Which “hERG current change (%, negative = inhibition) at 1uM” value does the source give for C[n+]1ccc(-c2cc[n+](C)cc2)cc1.[Cl-] here?
Answer: 3.57%

Question: O=C(O)c1ccc(CSc2n[nH]c(-c3ccco3)n2)cc1 was tested. Which “hERG current change (%, negative = inhibition) at 1uM” value did it give?
Answer: 4.06%

Question: Which “hERG current change (%, negative = inhibition) at 1uM” value does the source give for CC(C)(C)NC(=O)NC(=O)COC(=O)c1ccc(OC(F)F)cc1 here?
Answer: 9.04%

Question: COc1ccc2nc(COC(=O)c3cccc([N+](=O)[O-])c3)c(C(C)=O)[n+]([O-])c2c1 was tested. Which “hERG current change (%, negative = inhibition) at 1uM” value did it give?
Answer: 17.5%

Question: How did the “hERG current change (%, negative = inhibition) at 1uM” value turn out when Cc1ccc(-c2nc3ncccn3c2NC2CCCCC2)o1 was run?
Answer: -1.2%

Question: O=C(Cc1ccc(S(=O)(=O)N2CCOCC2)s1)NCCOc1ccccc1 was tested. Which “hERG current change (%, negative = inhibition) at 1uM” value did it give?
Answer: 9.44%

Question: CCOC1=NN(c2ccc(Cl)cc2)C(=O)/C1=C\N(C)C was tested. Which “hERG current change (%, negative = inhibition) at 1uM” value did it give?
Answer: -13.7%

Question: Which “hERG current change (%, negative = inhibition) at 1uM” value does the source give for O=C(Nc1ccc(F)cc1)C1CCN(C(=O)NCc2ccccc2)CC1 here?
Answer: -5.28%

Question: With Cc1cc(N/N=C/c2ccc(O)cc2O)nc(N2CCOCC2)n1 as the molecule, how does the “hERG current change (%, negative = inhibition) at 1uM” value read?
Answer: 4.36%

Question: With Cn1c(=O)n(C)c2cc([N+](=O)[O-])c(N3CCN(C(=O)c4ccccc4)CC3)cc21 as the molecule, how does the “hERG current change (%, negative = inhibition) at 1uM” value read?
Answer: -0.909%

Question: With O=C(CSc1nc2ccccc2n1CC(=O)N1CCCC1)NCc1ccc2c(c1)OCO2 as the molecule, how does the “hERG current change (%, negative = inhibition) at 1uM” value read?
Answer: -3.27%

Question: Which “hERG current change (%, negative = inhibition) at 1uM” value does the source give for CC(=O)c1cccc(OCc2cc(C(=O)N(C)CCC3CCOCC3)no2)c1 here?
Answer: 4.9%

Question: COc1ccc(-c2nc(-c3ccncc3)no2)cc1 was tested. Which “hERG current change (%, negative = inhibition) at 1uM” value did it give?
Answer: 8.13%

Question: How did the “hERG current change (%, negative = inhibition) at 1uM” value turn out when Cc1ccc(CN2C(=O)C(C)Oc3ccccc32)cc1 (centres unmarked) was run?
Answer: 16.2%

Question: Which “hERG current change (%, negative = inhibition) at 1uM” value does the source give for COc1ccc(Nc2nnc(SCC(=O)c3cc(C)n(CC4CCCO4)c3C)s2)cc1 (centres unmarked) here?
Answer: 15.1%

Question: Which “hERG current change (%, negative = inhibition) at 1uM” value does the source give for O=C(NC1CCCC1)C(c1ccncc1)N(C(=O)c1csnn1)c1ccc(F)c(Cl)c1 (centres unmarked) here?
Answer: 10.8%

Question: With CCOc1cc(CNCCO)cc(Br)c1OCc1ccc(Cl)cc1.Cl as the molecule, how does the “hERG current change (%, negative = inhibition) at 1uM” value read?
Answer: -8.87%

Question: For Cc1ccc(-n2ncc3c(=O)n(CC(=O)NCc4ccco4)cnc32)cc1, which “hERG current change (%, negative = inhibition) at 1uM” value is on record?
Answer: 23%

Question: How did the “hERG current change (%, negative = inhibition) at 1uM” value turn out when CC(C)CCn1c(-c2nonc2N)nc2ccccc21 was run?
Answer: 6.14%

Question: O=C(O)C(Cc1ccccc1)Nc1ccc([N+](=O)[O-])cc1[N+](=O)[O-] (centres unmarked) was tested. Which “hERG current change (%, negative = inhibition) at 1uM” value did it give?
Answer: 18.7%

Question: How did the “hERG current change (%, negative = inhibition) at 1uM” value turn out when COc1cc(CN2CCCCC2C(=O)Nc2ccc(Oc3ccccc3)nc2)ccc1O (centres unmarked) was run?
Answer: 12.6%

Question: For CCc1nnc(NS(=O)(=O)c2ccc(N=Cc3c(O)n(-c4ccccc4)c(=O)[nH]c3=O)cc2)s1, which “hERG current change (%, negative = inhibition) at 1uM” value is on record?
Answer: 6.95%

Question: CCOC(=O)Cc1c(C)nc2c(-c3ccc(Cl)cc3)cnn2c1C was tested. Which “hERG current change (%, negative = inhibition) at 1uM” value did it give?
Answer: 8.93%

Question: With Cc1sc2ncnc(N3CCC(C(=O)Nc4ccccc4C(C)(C)C)CC3)c2c1C as the molecule, how does the “hERG current change (%, negative = inhibition) at 1uM” value read?
Answer: -3.64%

Question: With CCN(CC)Cc1csc(C(N)=O)c1 as the molecule, how does the “hERG current change (%, negative = inhibition) at 1uM” value read?
Answer: 18.1%

Question: Which “hERG current change (%, negative = inhibition) at 1uM” value does the source give for Cc1cc(NC(=O)CSCC(=O)Nc2nc3ccc(F)cc3s2)no1 here?
Answer: 19.2%

Question: Which “hERG current change (%, negative = inhibition) at 1uM” value does the source give for CCOC(=O)CN1CC23C=CC(O2)C(C(=O)NCc2ccccc2OC)C3C1=O (centres unmarked) here?
Answer: -12.8%

Question: How did the “hERG current change (%, negative = inhibition) at 1uM” value turn out when COc1ccc(C(=O)Nc2ccnn2C2CCN(Cc3ccncc3)CC2)cc1 was run?
Answer: -0.365%

Question: For O=C(Nc1ccc(N2CCOCC2)cc1)Nc1ccc2nc(-c3ccco3)c(-c3ccco3)nc2c1, which “hERG current change (%, negative = inhibition) at 1uM” value is on record?
Answer: -2.53%

Question: COc1ccc(-c2csc(NC(=O)CN3C(=O)NC4(CCCC4)C3=O)n2)cc1 was tested. Which “hERG current change (%, negative = inhibition) at 1uM” value did it give?
Answer: 1.42%
